Measurements from PubChem BioAssay (Tox21).
Several values for one entry are separate records, joined by “and”; a condition that tells them apart may be missing. Equal entries are not always repeated. This list was built around the results that the source calls inconclusive (neither active nor inactive); the mix of calls is not that of the screen. For some assays here: A potency beside an inconclusive call is a rough fit, not a confirmed value. Activity calls are given as the source filed them. Unless noted, calls come from the whole dose curve; as a rule, active = well fitted curve in the direction sought with a large enough effect in the repeat runs; inconclusive = weak or mixed curves; inactive = no such curve, though single readings can be large; an effect the other way counts as inactive or inconclusive.

What was measured:
[1] = qHTS assay to identify small molecule antagonists of the androgen receptor (AR) signaling pathway - cell viability counter screen (AID 743033; note: potency is the fitted concentration of half-maximal effect; nearly all actives have a fitted effect of over 45% in size); settings: AR-bla HEK293 viability, CellTiter-Glo luminescence, 16 h; activity change, negative = cytotoxicity: at 58.5 µM (top of the series) unless noted
[2] = qHTS assay to identify small molecule that activate the aryl hydrocarbon receptor (AhR) signaling pathway - cell viability counter screen (AID 743086); note: nearly all actives have a fitted effect of over 45% in size; note: potency is the fitted concentration of half-maximal effect
Outline: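 HepG2-AhR-luc (HG2L7.5c1) cells, 4000/well, were preincubated 5 h at 37C, exposed to compound in qHTS format for 24 hr at 37C, then given CellTiter-Fluor for 30 min; viability was read as fluorescence in the reporter wells.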

[3] = A CellTox Green Cytotoxicity Assay to monitor cytotoxicity in HEK293 cells - 40 hour (AID 1224871); note: nearly all actives have a fitted effect of over 45% in size; note: potency is the fitted concentration of half-maximal effect
Outline: (§1)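 Fluorescence intensity, read at 0, 8, 16, 24, 32 and 40 h of compound treatment, reflected dye binding to DNA of dead HEK293 cells; compounds (23 nL, DMSO) were added 5 h after plating cells with reagent.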

[4] = A CellTox Green Cytotoxicity Assay to monitor cytotoxicity in HepG2 cells - 32 hour (AID 1224883); note: potency is the fitted concentration of half-maximal effect; nearly all actives have a fitted effect of over 50% in size
Outline: (§2)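 Using 1536-well format, dye-containing HepG2 suspension was seeded, allowed 5 h at 37 C/5% CO2, dosed by pintool with compounds, positive and negative controls, and imaged for fluorescence across 40 h.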

Aromatase (Homo sapiens) = Aromatase (Homo sapiens) (UniProt P11511); assay: qHTS assay to identify aromatase inhibitors (AID 743083); note: % is set by controls: 0 for no effect and ±100 for the full control effect; nearly all actives have a fitted effect of over 55% in size
[5] = target: Androgen receptor (Homo sapiens) (UniProt P10275); assay: qHTS assay to identify small molecule antagonists of the androgen receptor (AR) signaling pathway using the MDA cell line in the presence of 0.5 nM R1881 (AID 1259243); note: nearly all actives have a fitted effect of over 50% in size; note: potency is the fitted concentration of half-maximal effect
Outline: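 Reporter cells cultured without CO2 receive test chemicals, then 0.5 nM R1881 final; after 16 hr at 37C, ONE-Glo is added and light output recorded.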

[6] = target: Androgen receptor (Homo sapiens) (UniProt P10275); assay: qHTS assay to identify small molecule agonists of the androgen receptor (AR) signaling pathway (AID 743036; active = well fitted activation curve with a large enough effect in the signal ratio in the repeat runs, with a control signal flat, not every such curve was filed as active; inconclusive = weak or mixed curves, or effect the other way; inactive = no such curve, though single readings can be large or run the other way; the % refers to the signal ratio; note: % is set by controls: 0 for no effect and ±100 for the full control effect); settings: HEK293 AR-UAS-bla GripTite, beta-lactamase FRET ratio, 16 h; activation: at 62.4 µM (top of the series) unless noted
Outline: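 Following a 4 h settling period, AR-UAS-bla HEK293 cells were dosed with compounds for 16 h at 37C. A 2 h room-temperature incubation with LiveBLAzer B/G FRET substrate preceded the fluorescence measurement.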

[7] = A CellTox Green Cytotoxicity Assay to monitor cytotoxicity in HEK293 cells - 8 hour (AID 1224884); note: nearly all actives have a fitted effect of over 35% in size; note: potency is the fitted concentration of half-maximal effect
Outline: as §1

[8] = qHTS assay to identify small molecule antagonists of the thyroid receptor (TR) signaling pathway (AID 743065); note: nearly all actives have a fitted effect of over 55% in size; note: potency is the fitted concentration of half-maximal effect
Outline: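 GH3.TRE-Luc rat pituitary cells carrying two TR response elements driving luciferase were plated for 4 h, given compound plus 1 nM T3 (final), and incubated 23.5 h at 37 C. ONE-Glo luminescence measured reporter inhibition; CellTiter-Fluor fluorescence tracked cytotoxicity.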

[9] = qHTS assay to identify small molecule antagonists of the constitutive androstane receptor (CAR) signaling pathway - cell viability counter screen (AID 1224837); note: nearly all actives have a fitted effect of over 45% in size; note: potency is the fitted concentration of half-maximal effect; for activity change, negative = cytotoxicity: % is set by controls: 0 for no effect and ±100 for the full control effect
Outline: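 Counter screen run in HepG2-CYP2B6-hCAR cells: 4 hr settle, compound titration (15 concentrations) with 50 nM CITCO, 23 hr at 37 C/5% CO2, CellTiter-Fluor fluorescence.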

[10] = A CellTox Green Cytotoxicity Assay to monitor cytotoxicity in HepG2 cells - 16 hour (AID 1224876); note: nearly all actives have a fitted effect of over 45% in size; note: potency is the fitted concentration of half-maximal effect
Outline: as §2

[11] = A CellTox Green Cytotoxicity Assay to monitor cytotoxicity in HepG2 cells - 0 hour (AID 1224882); note: potency is the fitted concentration of half-maximal effect; nearly all actives have a fitted effect of over 35% in size
Outline: as §2

[12] = qHTS assay to identify small molecule antagonists of the estrogen receptor beta (ER-beta) signaling pathway - cell viability counter screen (AID 1259382); note: nearly all actives have a fitted effect of over 55% in size; note: potency is the fitted concentration of half-maximal effect;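 for activity change, negative = cytotoxicity: HEK293T cells carrying ER-beta-UAS-bla reporter stimulated with estradiol; % is set by controls: 0 for no effect and ±100 for the full control effect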
Outline: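 In this multiplexed counter screen, cells were seeded at 2,000 per well in medium with 2% charcoal-stripped FBS and incubated 6 hr before compound and 1nM final E2 were added. Sixteen hours later, ATP-based luminescence reported viability.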

[13] = target: Androgen receptor (Homo sapiens) (UniProt P10275); assay: qHTS assay to identify small molecule antagonists of the androgen receptor (AR) signaling pathway (AID 743035; active = well fitted inhibition curve with a large enough effect in the signal ratio in the repeat runs, not every such curve was filed as active; inconclusive = weak or mixed curves, or effect the other way; inactive = no such curve, though single readings can be large or run the other way; the % refers to the signal ratio; note: % is set by controls: 0 for no effect and ±100 for the full control effect); settings: HEK293 AR-UAS-bla, R1881-stimulated, beta-lactamase FRET, 16 h; activity change, negative = inhibition: at 58.5 µM (top of the series) unless noted
Outline: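 Beta-lactamase FRET read (2 h RT incubation with LiveBLAzer B/G) following 16 h of compound plus R1881 treatment of AR-UAS-bla HEK293 cells, which had been pre-incubated 4 h at 37C.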

[14] = qHTS assay for small molecule disruptors of the mitochondrial membrane potential - cell viability (AID 720634; calls by dose curve; note: nearly all actives have a fitted effect of over 20% in size; note: potency is the fitted concentration of half-maximal effect)
Outline: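 HepG2, 1 hr compound, 37 C. ATP luminescence via CellTiter-Glo, 30 min RT, same well as m-MPI.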

[15] = target: Glucocorticoid receptor (Homo sapiens) (UniProt P04150); assay: qHTS assay to identify small molecule agonists of the glucocorticoid receptor (GR) signaling pathway (AID 720691; active = well fitted activation curve with a large enough effect in the signal ratio in the repeat runs, not every such curve was filed as active; inconclusive = weak or mixed curves, or effect the other way; inactive = no such curve, though single readings can be large or run the other way; the % refers to the signal ratio; note: potency is the fitted concentration of half-maximal effect); settings: GR-bla HeLa, beta-lactamase reporter ratio, 18 h; activation: at 62.4 µM (top of the series) unless noted
Outline: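 qHTS in GR-bla HeLa cells: 4 h settling at 37 C/5% CO2, 18 h compound incubation at 37 C, 2 h LiveBLAzer B/G FRET substrate at room temperature, fluorescence intensity measured.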

[16] = target: Nuclear receptor subfamily 1 group I member 3 (Homo sapiens) (UniProt Q14994); assay: qHTS assay to identify small molecule antagonists of the constitutive androstane receptor (CAR) signaling pathway (AID 1224838);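 note: HepG2 cells stably expressing hCAR with CYP2B6 luciferase reporter stimulated by CITCO; nearly all actives have a fitted effect of over 40% in size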; note: potency is the fitted concentration of half-maximal effect
Outline: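 Cell line: HepG2 double-stable for hCAR and CYP2B6-2.2kb reporter. Agonist: CITCO, 50 nM final. Compounds: 15 concentrations, 24 h, 37 C. Detection: ONE-Glo luminescence.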

[17] = target: Voltage-gated inwardly rectifying potassium channel KCNH2 (Homo sapiens) (UniProt Q12809); assay: Human Ether-a-go-go-Related Gene (hERG) channel small molecule antagonists: fluorescence cell-based qHTS assay (AID 1671200); note: nearly all actives have a fitted effect of over 50% in size; note: potency is the fitted concentration of half-maximal effect
Outline: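 In this thallium-flux screen, overnight-cultured U2OS cells bearing the channel are dye-loaded in darkness for an hour, rested 10 min at room temperature, and then monitored kinetically at 480/540 nm for two minutes post-stimulus.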

[18] = qHTS assay to identify small molecule antagonists of the androgen receptor (AR) signaling pathway using the MDA cell line in the presence of 0.5 nM R1881 - cell viability counter screen (AID 1259242); note: nearly all actives have a fitted effect of over 45% in size; note: potency is the fitted concentration of half-maximal effect
Outline: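 Viability of MDA-kb2 cells was multiplexed with the luciferase AR readout; after 16 hr with compounds and R1881 at 0.5 nM final, CellTiter-Fluor fluorescence was recorded.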

[19] = qHTS assay to identify small molecule antagonists of the sonic hedgehog signaling (Shh) pathway - cell viability counter screen (AID 1259367); note: potency is the fitted concentration of half-maximal effect; nearly all actives have a fitted effect of over 55% in size
Outline: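 After a 4 hr settling period, 3T3 Gli1-Luc cells were treated with DMSO-dissolved chemicals and conditioned medium, kept 24 hr at 37C in 5% CO2, and assayed for viability by CellTiter-Fluor fluorescence following 1 hr reagent incubation.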
Tags give direction and shape of the fitted curve or compound fluorescence and quenching.

UniProt P10275, sequence (P10275 whole entry, looked up): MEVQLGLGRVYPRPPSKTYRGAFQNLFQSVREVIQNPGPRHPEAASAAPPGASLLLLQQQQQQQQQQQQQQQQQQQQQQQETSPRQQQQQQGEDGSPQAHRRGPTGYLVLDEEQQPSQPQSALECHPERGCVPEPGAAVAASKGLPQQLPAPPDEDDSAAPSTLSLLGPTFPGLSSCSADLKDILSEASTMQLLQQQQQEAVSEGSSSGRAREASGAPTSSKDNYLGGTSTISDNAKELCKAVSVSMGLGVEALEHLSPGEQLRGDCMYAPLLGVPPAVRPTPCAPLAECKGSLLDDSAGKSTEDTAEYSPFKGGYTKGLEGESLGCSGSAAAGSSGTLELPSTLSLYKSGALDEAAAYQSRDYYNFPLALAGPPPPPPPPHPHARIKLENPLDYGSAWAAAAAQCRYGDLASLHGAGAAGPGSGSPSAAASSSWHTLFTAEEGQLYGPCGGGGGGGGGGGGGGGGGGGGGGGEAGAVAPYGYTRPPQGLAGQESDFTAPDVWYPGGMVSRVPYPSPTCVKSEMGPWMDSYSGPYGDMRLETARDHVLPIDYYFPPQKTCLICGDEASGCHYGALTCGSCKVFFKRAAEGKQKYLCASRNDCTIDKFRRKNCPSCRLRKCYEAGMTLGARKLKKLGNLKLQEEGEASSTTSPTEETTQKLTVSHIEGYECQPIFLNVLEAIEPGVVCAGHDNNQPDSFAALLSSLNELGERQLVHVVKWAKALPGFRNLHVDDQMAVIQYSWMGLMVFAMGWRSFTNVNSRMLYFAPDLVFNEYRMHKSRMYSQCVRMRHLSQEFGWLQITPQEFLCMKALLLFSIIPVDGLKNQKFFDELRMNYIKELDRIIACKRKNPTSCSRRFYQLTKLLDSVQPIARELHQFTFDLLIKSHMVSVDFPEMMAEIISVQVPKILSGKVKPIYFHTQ
UniProt Q12809, sequence (Q12809 whole entry, looked up): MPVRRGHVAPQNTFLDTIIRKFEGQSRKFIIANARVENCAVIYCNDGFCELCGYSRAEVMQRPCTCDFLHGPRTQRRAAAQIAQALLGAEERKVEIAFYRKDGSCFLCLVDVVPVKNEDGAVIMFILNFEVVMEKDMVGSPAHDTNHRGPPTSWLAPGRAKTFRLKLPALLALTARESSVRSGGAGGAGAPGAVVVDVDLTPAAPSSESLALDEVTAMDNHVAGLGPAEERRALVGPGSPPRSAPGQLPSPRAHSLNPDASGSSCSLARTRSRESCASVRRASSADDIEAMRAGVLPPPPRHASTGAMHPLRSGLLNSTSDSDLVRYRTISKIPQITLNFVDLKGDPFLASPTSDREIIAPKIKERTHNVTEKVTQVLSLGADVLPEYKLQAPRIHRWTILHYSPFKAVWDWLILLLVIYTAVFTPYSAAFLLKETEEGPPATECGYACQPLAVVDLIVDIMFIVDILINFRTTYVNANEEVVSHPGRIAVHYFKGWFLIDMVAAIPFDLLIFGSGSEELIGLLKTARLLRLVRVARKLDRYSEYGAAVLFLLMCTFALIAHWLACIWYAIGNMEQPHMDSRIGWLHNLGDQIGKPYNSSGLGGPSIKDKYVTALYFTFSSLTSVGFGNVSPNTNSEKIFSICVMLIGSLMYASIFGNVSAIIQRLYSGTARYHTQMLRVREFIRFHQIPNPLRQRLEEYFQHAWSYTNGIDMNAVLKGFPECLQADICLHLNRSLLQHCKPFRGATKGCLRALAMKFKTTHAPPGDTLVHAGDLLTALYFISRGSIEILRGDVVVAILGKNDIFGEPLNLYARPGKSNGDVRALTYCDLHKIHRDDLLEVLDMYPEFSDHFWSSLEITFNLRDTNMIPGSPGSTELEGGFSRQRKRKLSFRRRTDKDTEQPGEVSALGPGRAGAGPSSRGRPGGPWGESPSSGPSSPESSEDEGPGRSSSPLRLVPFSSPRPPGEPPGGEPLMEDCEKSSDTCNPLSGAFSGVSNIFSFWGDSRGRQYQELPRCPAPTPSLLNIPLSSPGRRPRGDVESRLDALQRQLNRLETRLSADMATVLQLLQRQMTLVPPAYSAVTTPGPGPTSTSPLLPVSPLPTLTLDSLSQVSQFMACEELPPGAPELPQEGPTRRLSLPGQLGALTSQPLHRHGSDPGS
UniProt P11511, sequence (P11511 whole entry, looked up): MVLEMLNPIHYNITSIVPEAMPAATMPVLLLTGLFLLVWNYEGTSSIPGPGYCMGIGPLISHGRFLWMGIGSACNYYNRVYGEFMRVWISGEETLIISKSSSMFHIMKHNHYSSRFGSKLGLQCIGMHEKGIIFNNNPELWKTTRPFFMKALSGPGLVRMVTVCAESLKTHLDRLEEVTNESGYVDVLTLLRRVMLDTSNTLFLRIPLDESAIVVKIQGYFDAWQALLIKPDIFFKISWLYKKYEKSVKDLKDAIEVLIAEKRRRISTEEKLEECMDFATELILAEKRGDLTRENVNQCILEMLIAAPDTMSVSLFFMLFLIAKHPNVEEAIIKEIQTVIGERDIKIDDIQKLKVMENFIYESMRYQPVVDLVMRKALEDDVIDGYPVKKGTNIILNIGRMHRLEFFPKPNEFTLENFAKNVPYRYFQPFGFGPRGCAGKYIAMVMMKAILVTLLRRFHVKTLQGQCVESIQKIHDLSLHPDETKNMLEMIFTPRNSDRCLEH
UniProt Q14994, sequence (Q14994 whole entry, looked up): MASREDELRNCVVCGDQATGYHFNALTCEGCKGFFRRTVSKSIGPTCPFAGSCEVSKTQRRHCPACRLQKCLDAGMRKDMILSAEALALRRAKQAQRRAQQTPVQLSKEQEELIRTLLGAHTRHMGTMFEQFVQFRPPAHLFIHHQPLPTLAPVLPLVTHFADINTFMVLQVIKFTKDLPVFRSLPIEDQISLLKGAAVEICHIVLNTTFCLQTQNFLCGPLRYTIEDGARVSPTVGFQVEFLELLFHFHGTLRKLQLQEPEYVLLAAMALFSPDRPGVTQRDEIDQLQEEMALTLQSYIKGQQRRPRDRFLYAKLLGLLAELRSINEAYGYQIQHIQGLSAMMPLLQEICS
UniProt P04150, sequence (P04150 whole entry, looked up): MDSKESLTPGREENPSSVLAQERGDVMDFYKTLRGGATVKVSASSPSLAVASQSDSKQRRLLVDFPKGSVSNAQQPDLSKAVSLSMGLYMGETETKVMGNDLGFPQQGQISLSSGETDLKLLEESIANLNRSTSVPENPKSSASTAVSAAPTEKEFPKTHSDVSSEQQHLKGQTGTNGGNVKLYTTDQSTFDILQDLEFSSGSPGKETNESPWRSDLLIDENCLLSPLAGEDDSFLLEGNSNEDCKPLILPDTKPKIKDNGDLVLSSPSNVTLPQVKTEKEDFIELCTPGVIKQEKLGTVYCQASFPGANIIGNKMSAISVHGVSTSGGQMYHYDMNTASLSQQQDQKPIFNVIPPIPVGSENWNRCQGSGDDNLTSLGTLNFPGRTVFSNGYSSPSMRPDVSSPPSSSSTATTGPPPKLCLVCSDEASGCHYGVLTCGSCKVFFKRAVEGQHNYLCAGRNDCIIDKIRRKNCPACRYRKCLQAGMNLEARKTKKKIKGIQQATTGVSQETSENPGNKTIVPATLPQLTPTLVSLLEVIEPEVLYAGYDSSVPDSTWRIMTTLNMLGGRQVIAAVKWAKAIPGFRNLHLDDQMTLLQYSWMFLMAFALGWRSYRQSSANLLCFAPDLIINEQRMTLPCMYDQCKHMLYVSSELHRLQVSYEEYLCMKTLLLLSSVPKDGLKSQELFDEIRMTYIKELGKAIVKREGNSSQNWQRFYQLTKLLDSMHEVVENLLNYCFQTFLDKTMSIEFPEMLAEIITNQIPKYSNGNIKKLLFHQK

S=c1[nH][nH]c(=S)s1
Potency [1]: inconclusive: 0.219 µM [cytotoxic, full curve]

CCOC(=S)SSC(=S)OCC
Potency [2]: inactive

c1ccc(CCCc2ccccn2)cc1
Potency [3]: inconclusive: 54.9 µM [activator, single point]

Clc1cc(Cl)c(Cl)c(Cl)c1Cl
Potency [4]: inconclusive: 24.5 µM [activator, partial curve, poor fit]

NNC(=O)c1ccncc1
Potency [2]: inconclusive: 13.3 µM [rising, partial curve]
Potency [3]: inactive

CN(C(=O)C(Cl)Cl)c1ccc(OC(=O)c2ccco2)cc1
Potency (Aromatase (Homo sapiens)): inactive
Potency [5]: inconclusive: 29.8 µM [inhibitor, partial curve, poor fit]

CC(CC(C)(C)C)CC(C)(C)CC(C)(C)C (centres undefined)
Potency [5]: inactive

Cc1c(C(=O)c2c[nH]n(C)c2=O)ccc(S(C)(=O)=O)c1C1=NOCC1
activation [6]: inconclusive: 16.5% [at 29.2 µM]

CCOC(C)OCC
Potency (Aromatase (Homo sapiens)): inactive
Potency [7]: inconclusive: 2.12 µM [activator, single point]

CCCOc1ccc(C(=O)OCCN(CC)CC)cc1N
Potency [8]: inconclusive: 33.5 µM [inhibitor, partial curve, poor fit]

COc1ccc([C@@H]2CC(=O)c3c(O)cc(O[C@@H]4O[C@H](CO[C@@H]5O[C@@H](C)[C@H](O)[C@@H](O)[C@H]5O)[C@@H](O)[C@H](O)[C@H]4O)cc3O2)cc1OC
Potency [8]: inactive
Potency [9]: inactive

NC(=O)N[C@@H](CCC(=O)O)C(=O)O
Potency [10]: inactive
Potency [11]: inconclusive: 26.8 µM [activator, partial curve, poor fit]
Potency [7]: inactive

O=C(NCC(O)CO)c1c(I)c(C(=O)NCC(O)CO)c(I)c(N(CCO)C(=O)CO)c1I (centres undefined)
Potency [3]: inactive

C=C(C)C1CCC(C)(O)CC1 (centres undefined)
Potency [12]: inactive

COCc1nnc(-c2ccc[n+]([O-])c2)n1-c1c(Cl)c(Cl)cc2[nH]c(=O)c(=O)[nH]c12
activity change, negative = inhibition [13]: inconclusive: 3.79%

CCOc1nc2cccc(C(=O)O)c2n1Cc1ccc(-c2ccccc2-c2nn[nH]n2)cc1
Potency [14]: inactive
Potency [15]: inconclusive: 26.8 µM [cytotoxic, single point]

CO
Potency [16]: inactive
Potency [7]: inactive

c1ccc(-c2nc[nH]c2-c2ccccc2)cc1
Potency [8]: inconclusive: 26.6 µM [inhibitor]
Potency [10]: inconclusive: 19 µM [activator, partial curve]
Potency [11]: inconclusive: 21.3 µM [activator, partial curve]
Potency [4]: inconclusive: 19 µM [activator, partial curve]

CCCC(CCC)(C(=O)OCC)C(=O)OCC
Potency [12]: inactive

O=C(Nc1ccccc1)OCC(CN1CCCCC1)OC(=O)Nc1ccccc1 (centres undefined)
Potency [14]: inconclusive: 2.85 µM [cytotoxic, partial curve, poor fit]
Potency [11]: inconclusive: 2.68 µM [activator, single point]
Potency [4]: inconclusive: 26.8 µM [activator, single point]
Potency [12]: inconclusive: 33.5 µM [cytotoxic, partial curve, poor fit]
Potency [17]: active: 6.01 µM

Clc1cc(Cl)c(-c2c(Cl)c(Cl)cc(Cl)c2Cl)cc1Cl
Potency [3]: inactive

NC(=O)CCCCC1CCSS1 (centres undefined)
Potency [10]: inconclusive: 10.7 µM [activator, single point]
Potency [11]: inconclusive: 10.7 µM [activator, single point]

CCN(CC)c1ccc(C=O)cc1
Potency [5]: inconclusive: 1.72 µM [inhibitor, full curve]

O=S(=O)(O)c1ccc(N=Nc2c(O)ccc3cc(S(=O)(=O)O)ccc23)cc1
Potency (Aromatase (Homo sapiens)): inactive
Potency [2]: active: 13.7 µM and active: 8.63 µM
Potency [9]: active: 54.7 µM and active: 27.3 µM
Potency [18]: active: 54.7 µM and active: 27.3 µM
Potency [19]: active: 27.4 µM and active: 27.3 µM

Nc1ccc([N+](=O)[O-])c(N)c1
Potency [2]: active: 33.5 µM
Potency [18]: inconclusive: 47.3 µM [cytotoxic, partial curve]

Cc1cc(NC(=O)C2=C(O)c3ccccc3S(=O)(=O)N2C)no1
Potency [14]: inactive

OC1OCCOC1O (centres undefined)
Potency [8]: inactive

CCCN(C1CCN(C(=O)C2CCNCC2)CC1)[C@@H]1CCc2ccc(OC)cc2C1
Potency [3]: inconclusive: 54.9 µM [activator, single point]
Potency [7]: inconclusive: 61.6 µM [activator, partial curve, poor fit]
Potency [12]: inconclusive: 68.6 µM [cytotoxic, partial curve, poor fit]
Potency [17]: inconclusive: 24.5 µM [inhibitor, partial curve]

O=C(O)c1ccncc1
Potency [18]: inactive

CC(CCO)CCCC(C)(C)O (centres undefined)
Potency [1]: inconclusive: 54.9 µM [cytotoxic, single point]
Potency [16]: active: 27.3 µM
Potency [17]: inactive

COC(=O)CCC(=O)O
Potency (Aromatase (Homo sapiens)): inactive

CN(C)c1ccc(Cc2ccc(N(C)C)cc2)cc1
Potency [8]: inactive
Potency [17]: inconclusive: 492 nM [inhibitor, single point] and inconclusive: 49 µM [inhibitor, partial curve, poor fit]
